# PMC7614228, “Structural maturation of SYCP1-mediated meiotic chromosome synapsis by SYCE3” (Nature structural & molecular biology, 2023)
# Results are given in words; binding and its absence hold for the method and conditions named. For part of these data: In cells and extracts the contact can be indirect. Some entries that bind do so weakly or less than the wild type. For part of these data: Sequences can lack the tags named with a protein.
# T1: SYCP1 (1-811) (human) (UniProt Q15431)
# T1 sequence: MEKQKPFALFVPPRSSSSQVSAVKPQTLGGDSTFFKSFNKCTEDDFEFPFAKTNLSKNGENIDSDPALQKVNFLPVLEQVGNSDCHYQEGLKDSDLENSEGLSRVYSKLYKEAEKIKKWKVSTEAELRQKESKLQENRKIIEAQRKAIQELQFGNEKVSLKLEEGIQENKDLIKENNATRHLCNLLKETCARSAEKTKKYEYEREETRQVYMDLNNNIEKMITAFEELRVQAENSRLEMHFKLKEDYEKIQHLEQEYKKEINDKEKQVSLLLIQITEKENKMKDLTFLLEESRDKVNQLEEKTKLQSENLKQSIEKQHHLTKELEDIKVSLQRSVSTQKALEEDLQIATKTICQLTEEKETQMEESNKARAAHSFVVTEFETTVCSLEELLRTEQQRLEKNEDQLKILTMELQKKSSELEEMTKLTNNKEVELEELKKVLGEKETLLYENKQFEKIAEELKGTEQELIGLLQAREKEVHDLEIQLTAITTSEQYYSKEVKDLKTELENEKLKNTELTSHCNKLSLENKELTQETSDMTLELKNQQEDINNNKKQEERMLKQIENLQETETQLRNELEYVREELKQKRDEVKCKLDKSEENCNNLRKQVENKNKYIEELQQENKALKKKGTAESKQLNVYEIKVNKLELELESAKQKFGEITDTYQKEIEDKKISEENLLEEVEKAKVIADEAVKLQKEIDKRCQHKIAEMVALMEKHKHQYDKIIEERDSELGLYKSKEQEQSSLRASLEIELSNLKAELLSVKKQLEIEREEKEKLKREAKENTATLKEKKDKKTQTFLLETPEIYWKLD
# T2: MBP-SYCP1αNcore (amino-acids 206-362) (human, UniProt Q15431 206-362)
# T2 construct: SYCP1 αNcore (tetrameric core), amino-acids 206-362; source: E. coli BL21(DE3), co-expressed with SYCE3 constructs; in lysate (amylose pull-down) or co-purified (amylose, anion exchange, SEC); not shown: MBP, N-terminal, kept
# T2 sequence (looked up): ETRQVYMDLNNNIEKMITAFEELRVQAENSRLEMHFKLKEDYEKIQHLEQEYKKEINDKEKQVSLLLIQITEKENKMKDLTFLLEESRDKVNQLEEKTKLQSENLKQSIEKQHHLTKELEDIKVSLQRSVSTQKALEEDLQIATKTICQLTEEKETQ
# T3: SYCP1αN-SYCE3 2:1 and 4:2 complexes (human) (UniProt Q15431+A1L190)
# T3 sequence 1: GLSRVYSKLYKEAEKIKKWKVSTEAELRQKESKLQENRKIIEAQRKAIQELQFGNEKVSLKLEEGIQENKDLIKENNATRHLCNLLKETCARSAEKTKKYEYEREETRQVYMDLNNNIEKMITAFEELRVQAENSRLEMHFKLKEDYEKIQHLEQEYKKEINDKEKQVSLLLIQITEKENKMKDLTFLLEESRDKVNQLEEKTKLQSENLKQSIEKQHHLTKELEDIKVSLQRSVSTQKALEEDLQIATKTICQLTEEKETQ
# T3 sequence 2: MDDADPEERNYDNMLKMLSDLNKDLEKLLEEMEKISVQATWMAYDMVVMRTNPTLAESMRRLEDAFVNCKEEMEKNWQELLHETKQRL
# T4: SYCP1αNcore-SYCE3 2:1 complex (human) (UniProt Q15431+A1L190)
# T4 sequence 1: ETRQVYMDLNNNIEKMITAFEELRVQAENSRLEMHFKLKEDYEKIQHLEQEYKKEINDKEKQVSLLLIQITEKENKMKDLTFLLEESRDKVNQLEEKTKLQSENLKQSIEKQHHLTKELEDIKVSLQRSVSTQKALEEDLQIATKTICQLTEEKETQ
# T4 sequence 2: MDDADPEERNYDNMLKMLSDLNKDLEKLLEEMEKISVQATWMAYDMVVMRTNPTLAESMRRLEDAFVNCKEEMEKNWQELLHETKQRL
# B1: SYCE3 (1-88) (protein, UniProt A1L190 1-88)
# chain: MDDADPEERNYDNMLKMLSDLNKDLEKLLEEMEKISVQATWMAYDMVVMRTNPTLAESMRRLEDAFVNCKEEMEKNWQELLHETKQRL
# B2: His-SYCE3 (full-length, amino-acids 1-88) (natural protein, human, UniProt A1L190 1-88, looked up)
# chain: MDDADPEERNYDNMLKMLSDLNKDLEKLLEEMEKISVQATWMAYDMVVMRTNPTLAESMRRLEDAFVNCKEEMEKNWQELLHETKQRL
# notes: SYCE3, full-length = amino-acids 1-88; source: E. coli BL21(DE3), co-expressed with MBP fusions; in lysate (amylose pull-down) or co-purified; not shown: His, N-terminal, kept
# B3: SYCE3 (natural protein, human, UniProt A1L190 1-88, looked up)
# chain: MDDADPEERNYDNMLKMLSDLNKDLEKLLEEMEKISVQATWMAYDMVVMRTNPTLAESMRRLEDAFVNCKEEMEKNWQELLHETKQRL
# notes: SYCE3 without a stated truncation; Dimer alone (SEC-MALS); one chain in the 2:1 complex with SYCP1; also called SYCE3 wild-type; free SYCE3; source: E. coli BL21(DE3), purified (Ni-NTA or amylose, TEV, anion exchange, SEC), alone or co-purified with SYCP1 constructs; not shown: His or His-MBP, N-terminal, cleaved
# B4: SYCE3 W41E Y44E (natural protein, human, UniProt A1L190 1-88, looked up)
# chain: MDDADPEERNYDNMLKMLSDLNKDLEKLLEEMEKISVQATEMAEDMVVMRTNPTLAESMRRLEDAFVNCKEEMEKNWQELLHETKQRL
# notes: SYCE3 with W41E Y44E; also called SYCE3 WY; WY mutant; source: E. coli BL21(DE3), purified, alone or co-purified with SYCP1 constructs; not shown: His or His-MBP, N-terminal, cleaved
# What was measured:
# [1] = target: T1, SYCP1 (1-811) (human); experiment: two-hybrid; Matchmaker Gold; pGBKT7 fusions in Y187 mated with pGADT7 fusions in Y2H Gold; growth on SD/-Trp/-Leu/-Ade/-His with X-α-gal, 5 days at 30°C
# [2] = target: T2, MBP-SYCP1αNcore (amino-acids 206-362); experiment: pull-down; amylose pull-down of SYCE3 after recombinant co-expression with MBP-SYCP1 constructs or free MBP
# [3] = target: T3, SYCP1αN-SYCE3 2:1 and 4:2 complexes (human); experiment: SEC; pre-formed SYCP1-SYCE3 complex (92-93 μM) with a 10-fold molar excess of free SYCE3 or SYCE3 W41E Y44E, 1 h at 30°C; Superdex 200 Increase, 20 mM Tris pH 8.0, 150 mM KCl, 2 mM DTT; both purified
# [4] = target: T4, SYCP1αNcore-SYCE3 2:1 complex (human); experiment: as above
# [5] = target: T4, SYCP1αNcore-SYCE3 2:1 complex (human); experiment: condition: 920 μM SYCE3 W41E Y44E with 92 μM complex; SEC; pre-formed SYCP1-SYCE3 complex (92-93 μM) with a 10-fold molar excess of free SYCE3 or SYCE3 W41E Y44E, 1 h at 30°C; Superdex 200 Increase, 20 mM Tris pH 8.0, 150 mM KCl, 2 mM DTT; both purified
# [6] = target: T3, SYCP1αN-SYCE3 2:1 and 4:2 complexes (human); experiment: condition: 930 μM SYCE3 W41E Y44E with 93 μM complex; SEC; pre-formed SYCP1-SYCE3 complex (92-93 μM) with a 10-fold molar excess of free SYCE3 or SYCE3 W41E Y44E, 1 h at 30°C; Superdex 200 Increase, 20 mM Tris pH 8.0, 150 mM KCl, 2 mM DTT; both purified
binder,measurement,setting,value
B1,binding,[1],binds
B2,binding,[2],binds
B3,binding,[3],binds
same,binding,[4],binds
B4,binding,[5],no binding
same,binding,[6],no binding
